Results reported in PubChem BioAssay AID360 (National Center for Advancing Translational Sciences (NCATS), 2006).
The whole screen tested about 48,000 compounds, of which about 550 (1.1%) were called active. Roughly 4% stayed inconclusive and do not appear here. No stated cut-off is given here; in the data, active means potency below about 15 µM; inconclusive means mostly about 16 µM to 33 µM; inactive means weaker than that. The list shows a part of the results.

The compounds below were run against Lysosomal acid glucosylceramidase (Homo sapiens) (UniProt P04062) (assay: Glucocerebrosidase). Conditions: purified enzyme, resorufin glucoside fluorescence (screen aimed at inhibitors), 20 min; series mostly up to 77 µM.
In short: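 Normal human glucocerebrosidase (0.2 nM final) was assayed with resorufin β-D-glucopyranoside (30 uM final) in 50mM citric acid/KH2PO4, 10mM sodium taurocholate, 0.01% tween-20, pH 5.9. Compounds were titrated; fluorescence (Ex 548, Em 600) read after 20 min at RT.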
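Further: the screen sought inhibitors.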
Potency means the concentration at half of the fitted maximal effect.

Sequence of UniProt P04062 (P04062 whole entry, looked up): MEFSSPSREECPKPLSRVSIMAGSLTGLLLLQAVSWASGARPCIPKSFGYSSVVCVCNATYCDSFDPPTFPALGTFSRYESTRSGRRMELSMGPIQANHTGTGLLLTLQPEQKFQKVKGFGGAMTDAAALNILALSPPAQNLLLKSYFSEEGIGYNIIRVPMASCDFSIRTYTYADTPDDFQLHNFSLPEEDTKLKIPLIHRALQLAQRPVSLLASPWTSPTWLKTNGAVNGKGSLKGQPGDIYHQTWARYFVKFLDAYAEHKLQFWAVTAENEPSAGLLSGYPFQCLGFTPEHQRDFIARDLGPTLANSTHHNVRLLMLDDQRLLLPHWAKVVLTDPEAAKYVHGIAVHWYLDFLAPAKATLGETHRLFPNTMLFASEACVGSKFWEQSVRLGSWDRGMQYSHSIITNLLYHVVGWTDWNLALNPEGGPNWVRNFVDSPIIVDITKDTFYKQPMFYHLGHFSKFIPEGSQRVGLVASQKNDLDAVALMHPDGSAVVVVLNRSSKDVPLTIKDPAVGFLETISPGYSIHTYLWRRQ

Potency, inactive:
Cc1ccc(CN2C(=O)CCC2C(=O)NCc2ccc3c(c2)OCO3)cc1 (configuration not stated) > 76.9 µM
COc1nc(N2CCCCCC2)nc(N2CCCCCC2)n1 > 76.9 µM
CCSc1nnc(NC(=O)c2ccccn2)s1 > 76.9 µM
O=S(=O)(N1CCCCC1)N1CCN(c2ccc(F)cc2)CC1 > 76.9 µM
COc1ccc(C(=O)NCCc2nnc(SCC(=O)Nc3ccccc3)n2C)cc1 > 76.9 µM
COCc1nnc(NC(=O)CCCCCN2C(=O)c3ccccc3C2=O)s1 > 76.9 µM
CCOc1ccc(N2C(=O)CC(N3CCC(NC(=O)Nc4ccccc4)CC3)C2=O)cc1 (configuration not stated) > 76.9 µM
CCOC(=O)NC(=O)COC(=O)Cc1cc(OC)c(OC)c(OC)c1 > 76.9 µM
CCOc1ccccc1OCCCC(=O)Nc1ccc(OC)nc1 > 76.9 µM
O=C(NCc1ccc2c(c1)OCO2)c1cccs1 > 76.9 µM
COCC(=O)N(Cc1ccc(OC)cc1)Cc1nc2ccccc2c(=O)[nH]1 > 76.9 µM
CCN(CC)CCOc1cc2c(nn1)Oc1ccccc1N2C > 76.9 µM
COc1ccccc1C1N(c2ccc(F)cc2)C(=O)C2CCCN21 (configuration not stated) > 76.9 µM
CCc1sc(NC(=O)CN2CCOCC2)nc1-c1ccccc1 > 76.9 µM
CCOC(=O)Cn1cnc2c(nnn2-c2ccc(C)cc2)c1=O > 76.9 µM
COc1ccc(-c2nnc(N(C)C(=O)c3cccnc3)s2)cc1 > 76.9 µM
COc1ccc(NC(=O)c2cc(OC)c(OC)cc2OC)c(S(=O)(=O)N2CCOCC2)c1 > 76.9 µM
CCOC(=O)c1[nH]c(C)c(C(=O)NCCCOC(C)C)c1C > 76.9 µM
COCCn1nnnc1C(c1ccc2ncccc2c1)N1CCc2ccccc21 (configuration not stated) > 76.9 µM
O=C(CCN1C(=O)c2ccccc2S1(=O)=O)Nc1ccc2c(c1)OCCO2 > 76.9 µM
CCOC(=O)C1CCN(C(=O)C2CCN(S(=O)(=O)N3CCCC3)CC2)CC1 > 76.9 µM
c1cc(C(c2nnnn2C2CCCC2)N2CCOCC2)ccn1 (configuration not stated) > 76.9 µM
C=CCn1nnnc1SCC(=O)Nc1cccc(OC)c1 > 76.9 µM
CCCn1c(=O)c2ccccc2n2c(SCCOc3ccc(OC)cc3)nnc12 > 76.9 µM
COc1cccc(NC(=O)N2CCCC2C(=O)NCC(C)C)c1 (configuration not stated) > 76.9 µM
CCn1c(=O)cc(OCC(=O)NCc2cccnc2)c2ccccc21 > 76.9 µM
CC(C)(C)C1=C[C@@H](CO)C[C@@H](CO)C1 > 76.9 µM
Cc1ccc(CNC(=O)CSc2nc(C)cc(C)c2C#N)cc1 > 76.9 µM
CCC(O)CNc1nc(-n2nc(C)cc2C)nc2sc3c(c12)CCCC3 (configuration not stated) > 76.9 µM
COC(=O)C(NS(C)(=O)=O)(c1c(C)[nH]c2ccccc12)C(F)(F)F (configuration not stated) > 76.9 µM
O=C(NCc1cccs1)c1ccc(Cl)s1 > 76.9 µM
CN(C)c1ccc(-n2cc3c(=O)n(C)c(=O)n(C)c3c2)cc1 > 76.9 µM
CCN(CC)C(=O)CSc1nnc(-c2cc(OC)cc(OC)c2)o1 > 76.9 µM
Cn1c(C(C#N)C2=C(Cl)C(=O)N(c3ccccc3)C2=O)nc2ccccc21 (configuration not stated)
CN1CCN(CCCNC(=O)Nc2cccc3ccccc23)CC1 > 76.9 µM
Cc1cc(NC(=O)C(C)C)ncc1NC(=O)Cc1ccccc1 > 76.9 µM
Nc1nc(-c2cccnc2)nn1C(=O)Cc1ccccc1 > 76.9 µM
Cc1nc(NCC2CCCO2)c2nnn(Cc3ccccc3Cl)c2n1 (configuration not stated) > 76.9 µM
CCn1cc(C(=O)NCCCN2CCC(C)CC2)c(=O)c2cc(S(=O)(=O)N3CCCC3)ccc21 > 76.9 µM
Cn1c(=O)cc(SCC(=O)NCCCN2CCOCC2)c2ccc(Cl)cc21 > 76.9 µM
CCOC(=O)c1cc(OC(=O)c2cccs2)n(-c2ccccc2)n1 > 76.9 µM
CCOC(=O)c1oc2nc(C(C)C)c3c(c2c1N)CC(C)(C)OC3 > 76.9 µM
CSc1nsc(SCC(=O)N2CCc3ccccc32)n1 > 76.9 µM
COc1ccc2[nH]c(=S)[nH]c2c1 > 76.9 µM
O=C(NCc1ccccn1)c1c(O)c2c([nH]c1=O)CCCC2 > 76.9 µM
CCn1cc(Br)c(C(=O)Nc2cccc(SC)c2)n1 > 76.9 µM
CCOC(=O)N1CCN(S(=O)(=O)c2ccc(OCC(=O)OC)cc2)CC1 > 76.9 µM
O=C(Nc1ccccc1)N1CCC(c2nc(-c3ccc(S(=O)(=O)N4CCOCC4)cc3)no2)CC1 > 76.9 µM
CN(CC(=O)O)S(=O)(=O)c1cc(Cl)ccc1Cl > 76.9 µM
Cc1ccccc1NC(=O)N1C2CCCC1CC(NC(=O)C(C)(C)C)C2 (configuration not stated) > 76.9 µM
COC(=O)CNc1n[nH]c(=S)[nH]c1=O > 76.9 µM
CCOC(=O)c1cnc(SCC(=O)c2ccc3c(c2)OCCO3)nc1N > 76.9 µM
O=C(CN1C(=O)C2C3C=CC(C3)C2C1=O)N1CC=C(c2ccccc2)CC1 (configuration not stated) > 76.9 µM
O=C1CCCN1c1ccc(CNS(=O)(=O)c2ccc(F)cc2)cc1 > 76.9 µM
Fc1ccccc1N1CCN(Cc2nc(-c3ccc(Cl)cc3Cl)no2)CC1 > 76.9 µM
CCCCN(CC)Cc1c(C)[nH]c2ccccc2c1=O > 76.9 µM
CCCOc1ccc2c(C)c(CC(=O)OC)c(=O)oc2c1 > 76.9 µM
CC1CC(C)CN(CCCNC(=O)C2CCC(=O)N2C2CCCC2)C1 (configuration not stated) > 76.9 µM
O=C1CCC(C(=O)N(c2ccccc2)C2(C(=O)NC3CCCCC3)CCCCC2)N1 (configuration not stated) > 76.9 µM
CCN1CCN(C(c2cccs2)C(C)NC(=O)c2c(F)cccc2F)CC1 (configuration not stated) > 76.9 µM
CCOC(=O)C(NC(=O)Nc1ccccc1)(OCC)C(F)(F)F (configuration not stated) > 76.9 µM
Cc1noc(C)c1CSc1nnc(-c2c[nH]c3ccccc23)n1-c1ccc(Cl)cc1 > 76.9 µM
COc1cccc(NC(=O)N2CCCC2C(=O)NC(C)C)c1 (configuration not stated) > 76.9 µM
CCCS(=O)(=O)N1CCC(C(=O)NC2CCC(C)CC2)CC1 (configuration not stated) > 76.9 µM
Cc1ccc(CCNC(=O)CN2C(=O)COc3ccccc32)cc1 > 76.9 µM
COc1ccc(S(=O)(=O)NCCc2ccc(F)cc2)cc1 > 76.9 µM
CN(C)c1ccc(CN(C(=O)c2ccco2)C2CCS(=O)(=O)C2)cc1 (configuration not stated) > 76.9 µM
CC1CN(c2nc3c(c(=O)n(C)c(=O)n3C)n2Cc2c(F)cccc2Cl)CC(C)O1 (configuration not stated) > 76.9 µM
COc1cccc(C(=O)CN2C(=O)C(C)(C)Oc3ccc(C(=O)N4CCCCCC4)cc32)c1 > 76.9 µM
COCCNc1nnc(SCC(=O)N2CCN(S(=O)(=O)c3ccccc3)CC2)s1 > 76.9 µM
O=c1[nH]c(=S)c2c(n1-c1ccccc1)CCC2 > 76.9 µM
Cc1cc(C)n(Cc2cccc(F)c2)c(=O)c1C#N > 76.9 µM
CS(=O)(=O)Nc1ccc(S(=O)(=O)NCCc2ccccc2)cc1 > 76.9 µM
CCC(=O)Nc1cccc(NC(=O)CSc2nnnn2C)c1 > 76.9 µM
O=C(Nc1cccnc1)c1ccc2snnc2c1 > 76.9 µM
CCc1nnc(NC(=O)CSc2nnc(-c3ccc(O)cc3)n2-c2ccccc2)s1 > 76.9 µM
CCOC(=O)N1CCN(S(=O)(=O)c2ccc(C(=O)Nc3nc4c(s3)CC(C)CC4)cc2)CC1 (configuration not stated) > 76.9 µM
O=c1c2c3nc4ccccc4nc3n(-c3cccc(F)c3)c2ncn1Cc1ccc2c(c1)OCO2 > 76.9 µM
COc1ccc(-c2nnc(SC(C)C#N)o2)cc1 (configuration not stated) > 76.9 µM
Fc1ccc(-c2nnn(Cc3nc4ccccc4s3)n2)cc1 > 76.9 µM
CCOC(=O)N1CCC(NC(=O)CCC(=O)N2CCOc3ccccc32)CC1 > 76.9 µM
CCOc1ccc(-c2cn(S(=O)(=O)c3cccc4nsnc34)nc2N)cc1 > 76.9 µM
N#CCSc1nnc(-c2ccccc2O)n1CCc1ccccc1 > 76.9 µM
O=C(Cn1nnc2ccccc21)NC1CCCCC1 > 76.9 µM
c1ccc(-c2nnc(-c3ccco3)o2)cc1 > 76.9 µM
Cc1nc2cc(C(=O)O)ccc2s1 > 76.9 µM
O=c1[nH]c(CN2CCN(c3ccccc3)CC2)nc2ccccc12 > 76.9 µM
O=C(NC1CCCCC1)C(c1ccccc1)N1CCCC1 (configuration not stated) > 76.9 µM
CCOC(=O)Cc1nnc(NC(=O)c2ccco2)s1 > 76.9 µM
O=C(CCCCCN1C(=O)c2ccccc2C1=O)Nc1nccs1 > 76.9 µM
O=C(c1cc(-c2ccco2)on1)N1CCOCC1 > 76.9 µM
COc1ccc(-c2nnc3ccc(SCC(=O)N4CCN(c5ccccc5)CC4)nn23)cc1OC > 76.9 µM
